# Source: a collection of fitness landscapes (doi:10.1126/science.1257360)
# The list shows a part of the results.
# B1: PhoQ; a variant is named by its letters at X, in order, P23837 (parent)
# chain: MKKLLRLFFPLSLRVRFLLATAAVVLVLSLAYGMVALIGYSVSFDKTTFRLLRGESNLFYTLAKWENNKLHVELPENIDKQSPTMTLIYDENGQLLWAQRDVPWLMKMIQPDWLKSNGFHEIEADVNDTSLLLSGDHSIQQQLQEVREDDDDAEMTHSVAVNVYPATSRMPKLTIVVVDTIPVELKSSYMVWSWFIYVLSANLLLVIPLLWVAAWWSLRPIEALAKEVRELEEHNRELLNPATTRELTSLVRNLNRLLKSERERYDKYRTTLTDLTHSLKTPLXXLQXXLRSLRSEKMSVSDAEPVMLEQISRISQQIGYYLHRASMRGGTLLSRELHPVAPLLDNLTSALNKVYQRKGVNISLDISPEISFVGEQNDFVEVMGNVLDNACKYCLEFVEISARQTDEHLYIVVEDDGPGIPLSKREVIFDRGQRVDTLRPGQGVGLAVAREITEQYEGKIVAGESMLGGARMEVIFGRQHSAPKDE
# Variants of: B1
# Assay: enrichment ratio after two sorts for PhoP signalling (ratio (wild type AVST 3.29)); higher = more functional
# Details: with PhoP (E. coli)
row,Variant,enrichment ratio
1,WHKR,≤ 0.25
2,WAFL,≤ 0.25
3,PIKF,≤ 0.25
4,TKSI,14.9
5,PSMI,≤ 0.25
6,ISTL,≤ 0.25
7,ELEG,≤ 0.25
8,YQWL,≤ 0.25
9,WQIQ,≤ 0.25
10,YWVE,≤ 0.25
11,IEEA,≤ 0.25
12,NDKG,≤ 0.25
13,YMEG,≤ 0.25
14,NCDS,≤ 0.25
15,NKSG,≤ 0.25
16,HEVD,≤ 0.25
17,CLTL,3.65
18,SHKW,≤ 0.25
19,VPTN,≤ 0.25
20,DLQT,≤ 0.25
21,IDNA,≤ 0.25
22,HGLW,≤ 0.25
23,SYMH,≤ 0.25
24,LVER,≤ 0.25
25,DYNE,≤ 0.25
26,IKDM,≤ 0.25

row,Variant,enrichment ratio
1,GDMF,≤ 0.25
2,FCVG,≤ 0.25
3,FPCE,≤ 0.25
4,RSIW,≤ 0.25
5,QHQC,≤ 0.25
6,EQQD,≤ 0.25
7,RMKI,≤ 0.25
8,KAKG,≤ 0.25
9,NWCK,≤ 0.25
10,WLPP,≤ 0.25
11,PLRG,≤ 0.25
12,DWSA,≤ 0.25
13,ICGS,≤ 0.25
14,QYNY,≤ 0.25
15,VMRN,≤ 0.25
16,AFWA,≤ 0.25
17,AAIT,≤ 0.25
18,RQPT,≤ 0.25
19,SANE,≤ 0.25
20,WPQH,≤ 0.25
21,QAQF,≤ 0.25
22,MLLK,≤ 0.25
23,YGAQ,≤ 0.25
24,YIIA,≤ 0.25
25,RDMI,≤ 0.25
26,FRAY,≤ 0.25

row,Variant,enrichment ratio
1,ASDA,≤ 0.25
2,DVFW,≤ 0.25
3,SLQA,≤ 0.25
4,DTKW,≤ 0.25
5,QKYL,≤ 0.25
6,QEYL,1.39
7,MKEC,≤ 0.25
8,EYCR,≤ 0.25
9,RPWK,≤ 0.25
10,HQVM,≤ 0.25
11,AAGS,≤ 0.25
12,WMLI,≤ 0.25
13,SVGI,3.36
14,GFYL,≤ 0.25
15,KLEV,≤ 0.25
16,YPAR,≤ 0.25
17,TELW,≤ 0.25
18,ELHD,≤ 0.25
19,FVMV,0.818
20,TLPA,≤ 0.25
21,YFAK,≤ 0.25
22,EYCT,≤ 0.25
23,SPNI,≤ 0.25
24,AQYQ,0.253
25,HYAC,≤ 0.25
26,ADPV,≤ 0.25

row,Variant,enrichment ratio
1,VEWI,12.2
2,EIGR,≤ 0.25
3,EVNS,≤ 0.25
4,LQPT,≤ 0.25
5,SCPI,15.2
6,QTCR,≤ 0.25
7,MATF,≤ 0.25
8,IMKK,≤ 0.25
9,GYTW,≤ 0.25
10,GLEP,≤ 0.25
11,GTDF,≤ 0.25
12,AMKL,≤ 0.25
13,NMQA,≤ 0.25
14,IDLW,≤ 0.25
15,QMWQ,≤ 0.25
16,NDHI,≤ 0.25
17,PLAL,≤ 0.25
18,YMWS,≤ 0.25
19,HQYE,≤ 0.25
20,AQHN,≤ 0.25
21,RTML,≤ 0.25
22,EAKL,≤ 0.25
23,HDGW,≤ 0.25
24,GCFR,≤ 0.25
25,WFHP,≤ 0.25
26,PWMH,≤ 0.25

row,Variant,enrichment ratio
1,QQVI,≤ 0.25
2,LAKF,≤ 0.25
3,NIDN,≤ 0.25
4,AGNI,≤ 0.25
5,DSGD,≤ 0.25
6,QFSH,≤ 0.25
7,GRGK,4.62
8,EEIL,≤ 0.25
9,RWPP,≤ 0.25
10,VNAP,0.384
11,EKIF,≤ 0.25
12,VQEK,≤ 0.25
13,KTPW,≤ 0.25
14,KSLQ,≤ 0.25
15,LHEF,≤ 0.25
16,QHFR,≤ 0.25
17,ENTL,≤ 0.25
18,WLKF,≤ 0.25
19,YEYT,≤ 0.25
20,KIVC,≤ 0.25
21,NGCI,≤ 0.25
22,YQTI,0.433
23,VLDY,≤ 0.25
24,LTVG,≤ 0.25
25,ESRL,≤ 0.25
26,APWA,≤ 0.25

row,Variant,enrichment ratio
1,FPLS,≤ 0.25
2,ERAA,≤ 0.25
3,VYSQ,≤ 0.25
4,RMSW,≤ 0.25
5,SWGM,≤ 0.25
6,MEPP,≤ 0.25
7,WGAP,≤ 0.25
8,DCPD,≤ 0.25
9,APPM,≤ 0.25
10,WMTM,≤ 0.25
11,MTSC,≤ 0.25
12,NSCK,≤ 0.25
13,QKLK,≤ 0.25
14,WNFL,≤ 0.25
15,LSCP,≤ 0.25
16,KTLP,≤ 0.25
17,VCYN,≤ 0.25
18,IMII,≤ 0.25
19,VTHR,0.955
20,SQRL,≤ 0.25
21,PMAS,≤ 0.25
22,FNQN,≤ 0.25
23,WMDS,≤ 0.25
